{"source": "patent US20200002401A1", "about": "“CD44 BINDING PEPTIDES” (EXCHANGE IMAGING TECHNOLOGIES GMBH, priority 2013, published 2020)", "key": {"CD44v5 peptide": {"molecular_target": "T1, CD44v5 peptide (Homo sapiens, UniProt P16070)", "T1 construct": "expressed in transfected cells; host or cells: yeast (two-hybrid reporter strain)", "T1 sequence (P16070 346-384)": "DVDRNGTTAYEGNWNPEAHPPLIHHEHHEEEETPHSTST", "experiment": "FDG assay of the deletion mutants of peptide B (FIG. 19)", "format": "binding", "details": "compared with peptide B", "from_the_text": "The FDG assay is based on the reporter system of the two hybrid scanning system. Hereby the GAL4-binding domain with the CD44v5 peptide interacts with the respective peptides fused to the GAL4-actvation domain. After complex formation two independent reporter genes are activated, the first one encodes a fluorescent protein, the second reporter gene encodes the enzyme beta-galactosidase, whose enzymatic activity can be determined by using the fluorogenic substrate Fluorescein di-beta-D-galactopyranoside (FDG).\nThe peptides were comparatively tested in the PHP and the FDG assay."}, "[1]": {"test_system": "mucinous adenocarcinoma tissue (sample No. 35)", "experiment": "Labelling of tumor tissue sections with bispecific nanoparticle, with and without free targets", "set-up": "species or system human", "details": "MBP-CEA 25 μM or Sialyl Lewisa 250 μM; FIG. 12", "experimental": "In a separate set of experiments, a sample taken from a human tumor was used. The tumor sample No. 35 was resected in 2011 from coecum and was diagnosed as a mucinous adenocarcinoma. It was classified according the TNM classification as pT4No(0/18)G3Ro. This sample which was not otherwise pretreated was prepared and fixed as follows.\nThe resected tumor sample, stored at −70° C. was used to prepare cryosections with a thickness of 5 μm using a HM560 MV cryostate. (Thermo Scientific, Walldorf, Germany). The sections were dried for 60 to 120 min at room temperature and incubated with cold acetone (−20° C.) for 10 minutes. After a further drying step for 10 min at room temperature, the sections were stored over night at −70° C.\nThe sections were defrosted in a closed box for 30 min at room temperature. Fixation was performed by incubation in a solution containing 20 mg/ml dimethyl suberimidate (DMS) and in 20 mM CaCl2 in 250 mM Tris-HCl buffer pH 8.0. […]\nThe sections as prepared above were evaluated with a reverse microscope Axiovert 200 with Axiocam HrM and a Axiocam Hrc CCD camera system, HXP 120 C illuminating device. The pictures were analysed using the Axiovision software (version 4.8; Carl Zeiss, Oberkochen, Germany). […]"}, "[2]": {"test_system": "human colon carcinoma cell line HCT-116", "experiment": "Immunocytochemical analysis of CD44v5-expressing tumor cells with peptide-coupled quantum dots", "format": "cell-based", "from_the_text": "In order to underscore the diagnostic and therapeutic potency of the CD44ex9-binding proteins, the peptides A, B and C were expressed as MBP-fusion proteins containing a His-tag, coupled to quantum dots and used for immunocytochemical analysis of CD44-expressing tumour cells.\nThe peptides were expressed as MBP-(YTH_v5_A/B/C)-His6 fusion proteins in E. coli, purified using Ni-NTA affinity chromatography and coupled via the His6-Tag to the QDBP-655 quantum dots.\nThe expressed and affinity-purified peptides A, B or C are dialysed for 2 hours against 50 mM sodium borate pH=8.3 (Slide-A-Lyzer Mini Dialysis Unit 10 KDa; (Thermo Fisher, Rockford, Ill., USA). Afterwards the protein concentration is determined and the solution diluted to the required concentration. The QDBP-655 quantum dot and the protein are mixed together to an end concentration of 0.3 μM (QDBP-655) in QDBP-655/ligand ratios of 1:12.5, 1:25, 1:50, 1:75 and 1:100 in sterile borosilicate vials as summarized in the following table: […]"}}, "note": "Where no end group is shown, it is not given here.", "data": [{"substance": "PGQLSFEVQWETSETLKILVKPLVFVCREVYDPPC (PGQLSFEVQWETSETLKILVKPLVFVCREVYDPPC; listed as Homo sapiens) [Peptide B1, peptide B with N-terminal deletion of 18 amino acids]", "values": [{"measurement": "ability to bind to CD44v5 (deletion mutants of peptide B)", "setting": "CD44v5 peptide", "result": "slightly decreased activity"}]}, {"substance": "Sialyl-Lewisa", "values": [{"measurement": "effect of free target on labeling by the bispecific nanoparticle", "setting": "[1]", "result": "inhibits the interaction with the cellular CA19-9 antigen"}]}, {"substance": "nanoparticles coupled to peptide A: peptide A expressed as MBP fusion protein with His6-tag, coupled to QDBP-655 quantum dots (PGVPGVQLTANTQSLVLMSAFDIAIEVTFISSHHHHHH; also: expressed as MBP fusion protein, coupled to QDBP-655 quantum dots)", "values": [{"measurement": "colocalization with labeling by anti-CD44v5 antibody (positive control)", "setting": "[2]; HCT-116, VFF-7", "result": "colocalizes with the labeling as generated by the anti-CD44v5 antibody"}, {"measurement": "labelling of HCT-116 tumour cells", "setting": "[2]; Qdot-peptide conjugates 100 nM, FIG. 22", "result": "labelling of the tumour cells could be observed"}]}]}
